These are yes or no findings as the source states them, for the method shown. Binding seen in cells or lysates may run through a third protein. Some results given as binding are weak or reduced against the parent protein; the word gives no strength. For part of these data: Tags and fused reporters may be left off the sequences shown.
T1: GST-Rna14 (yeast) (UniProt P25298)
T1 sequence: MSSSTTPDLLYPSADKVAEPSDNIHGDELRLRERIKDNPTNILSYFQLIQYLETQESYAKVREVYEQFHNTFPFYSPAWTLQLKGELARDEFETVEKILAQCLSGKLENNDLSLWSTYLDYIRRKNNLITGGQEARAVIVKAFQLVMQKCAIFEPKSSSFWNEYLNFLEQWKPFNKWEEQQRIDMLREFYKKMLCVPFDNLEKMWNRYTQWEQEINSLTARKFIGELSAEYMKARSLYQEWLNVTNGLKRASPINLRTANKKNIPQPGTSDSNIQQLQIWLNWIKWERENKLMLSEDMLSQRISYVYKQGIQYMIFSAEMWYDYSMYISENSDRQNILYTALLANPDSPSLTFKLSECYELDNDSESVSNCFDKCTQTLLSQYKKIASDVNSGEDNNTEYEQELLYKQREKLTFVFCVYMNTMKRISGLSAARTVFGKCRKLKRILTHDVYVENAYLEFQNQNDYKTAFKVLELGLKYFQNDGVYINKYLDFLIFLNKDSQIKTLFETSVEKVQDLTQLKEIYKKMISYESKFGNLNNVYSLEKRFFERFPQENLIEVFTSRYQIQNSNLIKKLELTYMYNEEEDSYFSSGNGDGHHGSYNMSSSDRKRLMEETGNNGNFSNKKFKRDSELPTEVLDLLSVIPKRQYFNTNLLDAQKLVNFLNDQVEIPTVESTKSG

Amino acid sequences for entries named in this document (tags omitted).
UniProt P39081: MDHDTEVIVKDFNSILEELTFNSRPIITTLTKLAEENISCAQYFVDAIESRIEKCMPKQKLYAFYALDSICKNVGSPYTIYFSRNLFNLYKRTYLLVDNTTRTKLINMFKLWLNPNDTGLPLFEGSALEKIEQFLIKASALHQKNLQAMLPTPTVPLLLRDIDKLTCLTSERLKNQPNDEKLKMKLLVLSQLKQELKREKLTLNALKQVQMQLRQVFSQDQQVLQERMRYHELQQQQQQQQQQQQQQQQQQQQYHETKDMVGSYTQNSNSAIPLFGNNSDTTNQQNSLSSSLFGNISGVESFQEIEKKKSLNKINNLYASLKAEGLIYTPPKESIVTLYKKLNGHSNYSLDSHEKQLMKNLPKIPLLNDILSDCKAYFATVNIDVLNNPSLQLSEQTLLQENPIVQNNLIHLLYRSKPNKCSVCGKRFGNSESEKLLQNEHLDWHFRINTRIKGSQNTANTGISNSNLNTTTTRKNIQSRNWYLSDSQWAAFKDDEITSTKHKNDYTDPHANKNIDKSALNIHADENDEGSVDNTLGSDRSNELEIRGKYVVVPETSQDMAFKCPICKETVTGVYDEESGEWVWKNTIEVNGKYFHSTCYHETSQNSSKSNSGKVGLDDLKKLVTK

T2: GST-Rna15 (yeast) (UniProt P25299)
T2 sequence: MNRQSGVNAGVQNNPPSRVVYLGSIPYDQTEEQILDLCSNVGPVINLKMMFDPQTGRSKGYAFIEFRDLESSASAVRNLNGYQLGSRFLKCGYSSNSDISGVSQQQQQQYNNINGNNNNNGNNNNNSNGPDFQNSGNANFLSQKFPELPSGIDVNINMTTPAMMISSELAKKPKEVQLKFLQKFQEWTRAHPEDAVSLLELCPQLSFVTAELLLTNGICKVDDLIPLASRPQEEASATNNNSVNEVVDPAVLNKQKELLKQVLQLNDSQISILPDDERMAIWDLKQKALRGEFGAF

T3: GST-Ysh1 (yeast) (UniProt Q06224)
T3 sequence: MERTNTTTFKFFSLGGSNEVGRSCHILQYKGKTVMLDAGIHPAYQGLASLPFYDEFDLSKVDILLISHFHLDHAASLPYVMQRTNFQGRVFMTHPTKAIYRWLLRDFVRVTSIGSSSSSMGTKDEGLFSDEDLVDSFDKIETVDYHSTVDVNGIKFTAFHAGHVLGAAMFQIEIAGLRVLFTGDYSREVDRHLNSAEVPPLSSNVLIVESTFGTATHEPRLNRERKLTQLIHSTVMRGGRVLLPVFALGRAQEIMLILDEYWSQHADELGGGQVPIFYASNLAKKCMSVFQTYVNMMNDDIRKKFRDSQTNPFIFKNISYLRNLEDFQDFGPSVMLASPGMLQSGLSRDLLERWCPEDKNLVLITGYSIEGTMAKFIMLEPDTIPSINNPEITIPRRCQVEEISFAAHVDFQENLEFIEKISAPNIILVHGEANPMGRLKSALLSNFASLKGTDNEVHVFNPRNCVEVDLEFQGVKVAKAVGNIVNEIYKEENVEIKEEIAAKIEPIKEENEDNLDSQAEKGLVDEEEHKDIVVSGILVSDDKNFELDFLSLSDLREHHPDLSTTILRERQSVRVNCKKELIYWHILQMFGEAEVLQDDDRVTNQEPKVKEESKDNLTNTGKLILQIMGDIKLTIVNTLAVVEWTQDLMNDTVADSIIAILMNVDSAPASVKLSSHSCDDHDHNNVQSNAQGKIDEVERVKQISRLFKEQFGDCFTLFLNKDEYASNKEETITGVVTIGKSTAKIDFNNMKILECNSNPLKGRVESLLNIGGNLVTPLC

B1: CD-CTD-Clp1 (amino acids 101-446), in vitro translated (domain or fragment, UniProt Q08685 101-445)
chain: HTMKYIYNLHFMLEKIRMSNFEGPRVVIVGGSQTGKTSLSRTLCSYALKFNAYQPLYINLDPQQPIFTVPGCISATPISDILDAQLPTWGQSLTSGATLLHNKQPMVKNFGLERINENKDLYLECISQLGQVVGQRLHLDPQVRRSGCIVDTPSISQLDENLAELHHIIEKLNVNIMLVLCSETDPLWEKVKKTFGPELGNNNIFFIPKLDGVSAVDDVYKRSLQRTSIREYFYGSLDTALSPYAIGVDYEDLTIWKPSNVFDNEVGRVELFPVTITPSNLQHAIIAITFAERRADQATVIKSPILGFALITEVNEKRRKLRVLLPVPGRLPSKAMILTSYRYLE
modifications: [35S]-methionine-labelled
B2: CTD-Clp1 (amino acids 342-446), in vitro translated (domain or fragment, UniProt Q08685 342-445)
chain: SPYAIGVDYEDLTIWKPSNVFDNEVGRVELFPVTITPSNLQHAIIAITFAERRADQATVIKSPILGFALITEVNEKRRKLRVLLPVPGRLPSKAMILTSYRYLE
modifications: [35S]-methionine-labelled
B3: CD-Clp1 (amino acids 101-341), in vitro translated (domain or fragment, UniProt Q08685 101-341)
chain: HTMKYIYNLHFMLEKIRMSNFEGPRVVIVGGSQTGKTSLSRTLCSYALKFNAYQPLYINLDPQQPIFTVPGCISATPISDILDAQLPTWGQSLTSGATLLHNKQPMVKNFGLERINENKDLYLECISQLGQVVGQRLHLDPQVRRSGCIVDTPSISQLDENLAELHHIIEKLNVNIMLVLCSETDPLWEKVKKTFGPELGNNNIFFIPKLDGVSAVDDVYKRSLQRTSIREYFYGSLDTAL
modifications: [35S]-methionine-labelled
B4: NTD-CD-Clp1 (amino acids 1-341), in vitro translated (domain or fragment, UniProt Q08685 1-341)
chain: MASLPGIDEHTTSEELITGDNEWHKLVIPKGSDWQIDLKAEGKLIVKVNSGIVEIFGTELAVDDEYTFQNWKFPIYAVEETELLWKCPDLTTNTITVKPNHTMKYIYNLHFMLEKIRMSNFEGPRVVIVGGSQTGKTSLSRTLCSYALKFNAYQPLYINLDPQQPIFTVPGCISATPISDILDAQLPTWGQSLTSGATLLHNKQPMVKNFGLERINENKDLYLECISQLGQVVGQRLHLDPQVRRSGCIVDTPSISQLDENLAELHHIIEKLNVNIMLVLCSETDPLWEKVKKTFGPELGNNNIFFIPKLDGVSAVDDVYKRSLQRTSIREYFYGSLDTAL
modifications: [35S]-methionine-labelled
B5: Pta1, in vitro translated (protein, UniProt Q01329 1-785)
chain: MSSAEMEQLLQAKTLAMHNNPTEMLPKVLETTASMYHNGNLSKLKLPLAKFFTQLVLDVVSMDSPIANTERPFIAAQYLPLLLAMAQSTADVLVYKNIVLIMCASYPLVLDLVAKTSNQEMFDQLCMLKKFVLSHWRTAYPLRATVDDETDVEQWLAQIDQNIGVKLATIKFISEVVLSQTKSPSGNEINSSTIPDNHPVLNKPALESEAKRLLDMLLNYLIEEQYMVSSVFIGIINSLSFVIKRRPQTTIRILSGLLRFNVDAKFPLEGKSDLNYKLSKRFVERAYKNFVQFGLKNQIITKSLSSGSGSSIYSKLTKISQTLHVIGEETKSKGILNFDPSKGNSKKTLSRQDKLKYISLWKRQLSALLSTLGVSTKTPTPVSAPATGSSTENMLDQLKILQKYTLNKASHQGNTFFNNSPKPISNTYSSVYSLMNSSNSNQDVTQLPNDILIKLSTEAILQMDSTKLITGLSIVASRYTDLMNTYINSVPSSSSSKRKSDDDDDGNDNEEVGNDGPTANSKKIKMETEPLAEEPEEPEDDDRMQKMLQEEESAQEISGDANKSTSAIKEIAPPFEPDSLTQDEKLKYLSKLTKKLFELSGRQDTTRAKSSSSSSILLDDDDSSSWLHVLIRLVTRGIEAQEASDLIREELLGFFIQDFEQRVSLIIEWLNEEWFFQTSLHQDPSNYKKWSLRVLESLGPFLENKHRRFFIRLMSELPSLQSDHLEALKPICLDPARSSLGFQTLKFLIMFRPPVQDTVRDLLHQLKQEDEGLHKQCDSLLDRLK
modifications: [35S]-methionine-labelled
B6: NTD-Clp1 (amino acids 1-100), in vitro translated (domain or fragment, UniProt Q08685 1-100)
chain: MASLPGIDEHTTSEELITGDNEWHKLVIPKGSDWQIDLKAEGKLIVKVNSGIVEIFGTELAVDDEYTFQNWKFPIYAVEETELLWKCPDLTTNTITVKPN
modifications: [35S]-methionine-labelled

Legend:
GST-Pcf11 (yeast) = GST-Pcf11 (yeast) (UniProt P39081); assay: pull-down; GST-fusion protein (100 ng) incubated with in vitro translated [35S]-methionine-labelled protein for 1 h at room temperature; bound in 860 µl to glutathione sepharose equilibrated in PBS, 0.01% NP-40, 100 µg BSA; washed three times with IPP150 (20 mM Tris-HCl pH 8.0, 150 mM KCl, 0.01% NP-40); SDS-PAGE, autoradiography (Fig. 2B, 2C); only the target purified
GST-Rna14 (yeast) = molecular target: T1, GST-Rna14 (yeast); assay: as above
GST-Rna15 (yeast) = molecular target: T2, GST-Rna15 (yeast); assay: as above
GST-Ysh1 (yeast) [1] = molecular target: T3, GST-Ysh1 (yeast); assay: as above
GST-Ysh1 (yeast) [2] = molecular target: T3, GST-Ysh1 (yeast); assay: pull-down; GST-Ysh1 with in vitro translated [35S]-labelled proteins; all binding reactions contained labelled Pta1 and increasing concentrations of wild-type or mutant Clp1 (Fig. 2D); only the target purified

| Binder | binding (GST-Pcf11 (yeast)) | binding (GST-Rna14 (yeast)) | binding (GST-Rna15 (yeast)) | binding (GST-Ysh1 (yeast) [1]) | binding (GST-Ysh1 (yeast) [2]) |
| --- | --- | --- | --- | --- | --- |
| B1 | binds weakly | binds | no binding (tested: 100 ng GST-fusion protein in 860 µl) | binds | – |
| B2 | no binding (tested: 100 ng GST-fusion protein in 860 µl) | binds | binds | binds | – |
| B3 | binds weakly | binds | no binding (tested: 100 ng GST-fusion protein in 860 µl) | binds | – |
| B4 | binds weakly | binds | no binding (tested: 100 ng GST-fusion protein in 860 µl) | binds | – |
| B5 | – | – | – | – | binds |
| B6 | no binding (tested: 100 ng GST-fusion protein in 860 µl) | no binding (tested: 100 ng GST-fusion protein in 860 µl) | no binding (tested: 100 ng GST-fusion protein in 860 µl) | no binding (tested: 100 ng GST-fusion protein in 860 µl) | – |

— publication PMC3245249
